Source: EP3727588B1, “ACTIVATOR PEPTIDES OF THE ENZYME ADAM 10 AND RELATED USES IN THE TREATMENT OF ALZHEIMER'S DISEASE” (UNIVERSITA' DEGLI STUDI DI MILANO, priority 2017, dated 2019)
Where “and” joins values, the source holds several entries; their conditions need not be identical. Equal values may be shown once. Entries after “also recorded” stand apart in the source; their conditions may differ. At least one peptide structure holds a part that was inferred or is arguable (an end, a ring closure or a residue). Peptide text beside a SMILES is read from it.

Columns and labels:
[1] = system: ADAM10; experiment: Western Blot of ADAM10 in total homogenate and TIF of APP/PS1 mice; assay type: in vivo; settings: 14 days, percentage of WT mice treated with inPEP3
[2] = biological target: T1, ADAM10 and SAP97 (Mus musculus, UniProt Q811D0); experiment: co-immunoprecipitation of ADAM10 with SAP97 in brain homogenate; assay type: in vivo, mice; settings: total brain homogenate, 14 days' treatment
T1 construct: from tissue; host or cells: total brain homogenate of C57BL/6 mice treated for 14 days

[3] = system: ADAM10; experiment: BS^3 cross-link test in acute hippocampal slices, intracellular pool of ADAM10; assay type: cell-based, rat; settings: 10µM, 30 minutes, with BS^3
[4] = system: N-Cadherin; experiment: Western Blot of N-Cadherin cut (CTF/full length) after 14 days' treatment; assay type: in vivo, mice
[5] = Y-maze test, WT and APP/PS1 mice of 6 months; assay type: in vivo; settings: APP/PS1 mice of 6 months, treated for 14 days
[6] = Novel Object Recognition Test (NORT), WT and APP/PS1 mice of 6 months; assay type: in vivo; settings: APP/PS1 (Tg) mice of 6 months, 14 days' treatment
[7] = system: BACE-1; experiment: Western Blot of synaptic localization of BACE-1; assay type: in vivo, mice; settings: 14 days' treatment
[8] = biological target: T2, BACE-1 and α-adaptin (Mus musculus, UniProt Q9DBG3); experiment: co-immunoprecipitation of BACE-1 with α-adaptin; assay type: in vivo, mice; settings: 14 days' treatment
T2 construct: from tissue; host or cells: total brain homogenate of C57BL/6 mice treated for 14 days

[9] = biological target: T3, ADAM10/AP2 interaction (Mus musculus, UniProt Q9DBG3); experiment: co-immunoprecipitation of ADAM10 with β2-adaptin in brain homogenate of APP/PS1 mice; assay type: in vivo; settings: APP/PS1 (Tg) mice of 9 months, 14 days; percentage of WT mice treated with inPEP3
T3 construct: from tissue; host or cells: total brain homogenate of treated mice (C57BL/6; wild-type and APP/PS1)

[10] = system: dendritic spines; experiment: dendritic spine morphology and density in hippocampus, WT and APP/PS1 mice of 6 months; assay type: in vivo; settings: APP/PS1 (Tg) animals of 6 months, 14-day treatment
[11] = system: GluN1, GluN2B, GluN2A, GluA1; experiment: Western Blot of glutamate receptor subunits in synaptic fraction, C57BL/6 mice; assay type: in vivo; settings: 14 days' treatment
[12] = system: ADAM10; experiment: Western Blot of ADAM10 in synaptic fraction (TIF) of primary hippocampal neurons; assay type: cell-based, rat; settings: primary hippocampal neurons DIV14, 1µM, 30 minutes
[13] = system: TacADAM10-RAR; experiment: fluorescence-based antibody uptake test (internalization) in COS7 cells; assay type: cell-based; settings: COS7 cells transfected with TacADAM10-RAR, 1 µM, 30 min
[14] = system: GluN2A, GluN2B, GLUA1, pS845 GluA1; experiment: Western Blot of glutamate receptor subunits in TIF of APP/PS1 mice; assay type: in vivo; settings: 14 days
[15] = system: sAPPα; experiment: Western Blot of sAPPα in soluble brain fraction of treated C57BL/6 mice (ADAM10 activity); assay type: in vivo; settings: for levels of sAPPα: not statistically significant
[16] = system: sAPPα; experiment: ELISA of sAPPα in brain homogenate after 14 days' treatment; assay type: in vivo, mice
[17] = system: ADAM10; experiment: Western Blot of ADAM10 in total homogenate and synaptic fraction (TIF) of brain of treated C57BL/6 mice; assay type: in vivo
[18] = system: AP2 complex with APP, GluA1, GABA-A β3; experiment: co-immunoprecipitation of AP2 (α-adaptin) with other target proteins in acute hippocampal slices; assay type: cell-based, rat; settings: 10 µM
[19] = biological target: T4, ADAM10/AP2 complex (Mus musculus, UniProt Q9DBG3); experiment: co-immunoprecipitation of ADAM10 with AP2 subunits in brain homogenate of treated C57BL/6 mice; assay type: in vivo
T4 construct: from tissue; host or cells: total brain homogenate of treated mice (C57BL/6; wild-type and APP/PS1)

[20] = system: NOTCH-1; experiment: Western Blot of NOTCH-1 fragment after 14 days' treatment; assay type: in vivo, mice
[21] = system: Aβ; experiment: ELISA of Aβ levels in APP/PS1 mice; assay type: in vivo; settings: APP/PS1 (Tg) mice of 9 months, 14 days
[22] = biological target: T5, complex AP2/GABA-A β3 (Mus musculus, UniProt Q9DBG3); experiment: co-immunoprecipitation of GABA-A β3 with α-adaptin in brain homogenate; assay type: in vivo, mice; settings: 14 days' treatment
T5 construct: from tissue; host or cells: total brain homogenate of C57BL/6 mice treated for 14 days

[23] = biological target: T6, APP and the complex AP2 (Mus musculus, UniProt Q9DBG3); experiment: co-immunoprecipitation of APP with AP2 in brain homogenate; assay type: in vivo, mice; settings: 14 days' treatment
T6 construct: from tissue; host or cells: total brain homogenate of C57BL/6 mice treated for 14 days

[24] = intraperitoneal 3 nmol/g, 24 hours (Figure 10)
[25] = intraperitoneal 3 nmol/g, 24 hours (Figure 12)
[26] = intraperitoneal 3 nmol/g, 24 hours after administration
[27] = sub-cutaneous injection, 1 nmol/g or 3 nmol/g, 24 or 48 hours (Figure 11)
[28] = C57BL/6 mice, 14 days, daily intraperitoneal 3 nmol/g
[29] = C57BL/6 mice, single intraperitoneal injection 3 nmol/g, 24 hours

T4 sequence (P84091 whole entry): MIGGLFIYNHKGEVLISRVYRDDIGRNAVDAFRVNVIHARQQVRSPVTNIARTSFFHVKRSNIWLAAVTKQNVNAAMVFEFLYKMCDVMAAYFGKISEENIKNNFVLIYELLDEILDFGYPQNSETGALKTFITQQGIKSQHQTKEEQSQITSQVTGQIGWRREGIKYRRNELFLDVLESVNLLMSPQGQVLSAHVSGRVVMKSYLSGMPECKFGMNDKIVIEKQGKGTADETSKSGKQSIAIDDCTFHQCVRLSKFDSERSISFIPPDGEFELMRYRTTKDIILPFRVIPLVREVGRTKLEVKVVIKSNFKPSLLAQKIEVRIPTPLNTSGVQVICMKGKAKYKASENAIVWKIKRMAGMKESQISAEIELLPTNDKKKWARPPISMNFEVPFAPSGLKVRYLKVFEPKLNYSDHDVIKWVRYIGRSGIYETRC
T4 sequence (Q9DBG3 whole entry): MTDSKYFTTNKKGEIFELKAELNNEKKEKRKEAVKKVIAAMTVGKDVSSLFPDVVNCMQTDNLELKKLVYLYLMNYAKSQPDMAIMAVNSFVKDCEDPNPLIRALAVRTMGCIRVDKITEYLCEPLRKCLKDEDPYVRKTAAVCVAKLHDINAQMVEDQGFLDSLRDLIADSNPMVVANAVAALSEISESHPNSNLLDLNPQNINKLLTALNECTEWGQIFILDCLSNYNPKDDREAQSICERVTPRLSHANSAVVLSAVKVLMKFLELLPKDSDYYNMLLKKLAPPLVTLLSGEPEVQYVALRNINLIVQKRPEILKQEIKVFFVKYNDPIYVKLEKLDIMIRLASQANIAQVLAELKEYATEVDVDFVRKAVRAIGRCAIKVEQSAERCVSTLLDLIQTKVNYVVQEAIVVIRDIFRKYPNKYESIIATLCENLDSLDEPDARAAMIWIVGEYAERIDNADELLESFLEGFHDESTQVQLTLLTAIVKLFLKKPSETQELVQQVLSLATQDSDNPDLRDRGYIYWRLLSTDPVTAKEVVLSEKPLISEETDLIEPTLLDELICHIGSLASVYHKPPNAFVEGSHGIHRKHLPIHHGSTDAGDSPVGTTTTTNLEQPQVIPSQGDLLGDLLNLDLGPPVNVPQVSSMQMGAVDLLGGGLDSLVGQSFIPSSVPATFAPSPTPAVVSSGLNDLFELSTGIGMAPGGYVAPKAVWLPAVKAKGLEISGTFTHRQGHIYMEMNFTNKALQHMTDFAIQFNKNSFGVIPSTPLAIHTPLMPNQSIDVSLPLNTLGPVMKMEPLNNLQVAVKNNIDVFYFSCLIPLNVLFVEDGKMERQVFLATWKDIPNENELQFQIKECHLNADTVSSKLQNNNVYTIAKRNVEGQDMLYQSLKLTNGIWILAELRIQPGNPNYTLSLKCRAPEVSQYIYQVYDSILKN
T4 sequence (P17427 whole entry, further chain): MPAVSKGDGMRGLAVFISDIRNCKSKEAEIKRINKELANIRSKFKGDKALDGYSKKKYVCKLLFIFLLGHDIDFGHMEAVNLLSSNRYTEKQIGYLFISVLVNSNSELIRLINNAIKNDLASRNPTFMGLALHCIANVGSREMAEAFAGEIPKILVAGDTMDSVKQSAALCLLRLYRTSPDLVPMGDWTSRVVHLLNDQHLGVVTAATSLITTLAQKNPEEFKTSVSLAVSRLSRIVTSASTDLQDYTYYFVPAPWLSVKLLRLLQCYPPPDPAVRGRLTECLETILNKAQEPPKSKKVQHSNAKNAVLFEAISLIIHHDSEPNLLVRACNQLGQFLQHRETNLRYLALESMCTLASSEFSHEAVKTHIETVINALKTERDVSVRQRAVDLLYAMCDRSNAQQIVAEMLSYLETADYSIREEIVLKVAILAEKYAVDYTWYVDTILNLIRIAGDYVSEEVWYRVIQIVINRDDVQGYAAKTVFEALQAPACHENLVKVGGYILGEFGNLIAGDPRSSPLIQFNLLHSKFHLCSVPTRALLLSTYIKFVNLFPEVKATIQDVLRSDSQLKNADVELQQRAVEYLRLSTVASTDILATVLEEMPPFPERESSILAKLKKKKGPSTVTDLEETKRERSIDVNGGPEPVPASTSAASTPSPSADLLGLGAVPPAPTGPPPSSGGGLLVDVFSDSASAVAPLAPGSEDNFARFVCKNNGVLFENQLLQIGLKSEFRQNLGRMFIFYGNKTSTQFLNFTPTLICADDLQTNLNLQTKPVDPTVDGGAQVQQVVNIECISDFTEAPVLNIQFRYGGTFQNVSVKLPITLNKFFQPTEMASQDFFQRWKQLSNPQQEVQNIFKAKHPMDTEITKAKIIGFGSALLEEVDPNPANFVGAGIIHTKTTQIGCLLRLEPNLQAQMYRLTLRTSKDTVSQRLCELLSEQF
T4 sequence (P62743 whole entry, further chain): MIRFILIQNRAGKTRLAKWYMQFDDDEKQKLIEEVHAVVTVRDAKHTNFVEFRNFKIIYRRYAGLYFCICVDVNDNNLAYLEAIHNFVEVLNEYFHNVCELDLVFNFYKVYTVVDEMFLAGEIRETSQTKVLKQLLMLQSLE
T6 sequence (P62743 whole entry): as the sequence (P62743 whole entry, further chain) above
T6 sequence (P17427 whole entry, further chain): as the sequence (P17427 whole entry, further chain) above
T6 sequence (P84091 whole entry, further chain): as the sequence (P84091 whole entry) above
T6 sequence (Q9DBG3 whole entry): as the sequence (Q9DBG3 whole entry) above
T2 sequence (Q9DBG3 whole entry): as above
T2 sequence (P17427 whole entry partner): as the sequence (P17427 whole entry, further chain) above
T2 sequence (P84091 whole entry partner): as the sequence (P84091 whole entry) above
T2 sequence (P62743 whole entry partner): as the sequence (P62743 whole entry, further chain) above
T5 sequence (Q9DBG3 whole entry): as the sequence (Q9DBG3 whole entry) above
T5 sequence (P17427 whole entry partner): as the sequence (P17427 whole entry, further chain) above
T5 sequence (P84091 whole entry partner): as the sequence (P84091 whole entry) above
T5 sequence (P62743 whole entry partner): as the sequence (P62743 whole entry, further chain) above
T3 sequence (P17427 whole entry): as the sequence (P17427 whole entry, further chain) above
T3 sequence (Q9DBG3 whole entry): as the sequence (Q9DBG3 whole entry) above
T3 sequence (P84091 whole entry, further chain): as the sequence (P84091 whole entry) above
T3 sequence (P62743 whole entry, further chain): as the sequence (P62743 whole entry, further chain) above
T1 sequence (Q811D0 whole entry): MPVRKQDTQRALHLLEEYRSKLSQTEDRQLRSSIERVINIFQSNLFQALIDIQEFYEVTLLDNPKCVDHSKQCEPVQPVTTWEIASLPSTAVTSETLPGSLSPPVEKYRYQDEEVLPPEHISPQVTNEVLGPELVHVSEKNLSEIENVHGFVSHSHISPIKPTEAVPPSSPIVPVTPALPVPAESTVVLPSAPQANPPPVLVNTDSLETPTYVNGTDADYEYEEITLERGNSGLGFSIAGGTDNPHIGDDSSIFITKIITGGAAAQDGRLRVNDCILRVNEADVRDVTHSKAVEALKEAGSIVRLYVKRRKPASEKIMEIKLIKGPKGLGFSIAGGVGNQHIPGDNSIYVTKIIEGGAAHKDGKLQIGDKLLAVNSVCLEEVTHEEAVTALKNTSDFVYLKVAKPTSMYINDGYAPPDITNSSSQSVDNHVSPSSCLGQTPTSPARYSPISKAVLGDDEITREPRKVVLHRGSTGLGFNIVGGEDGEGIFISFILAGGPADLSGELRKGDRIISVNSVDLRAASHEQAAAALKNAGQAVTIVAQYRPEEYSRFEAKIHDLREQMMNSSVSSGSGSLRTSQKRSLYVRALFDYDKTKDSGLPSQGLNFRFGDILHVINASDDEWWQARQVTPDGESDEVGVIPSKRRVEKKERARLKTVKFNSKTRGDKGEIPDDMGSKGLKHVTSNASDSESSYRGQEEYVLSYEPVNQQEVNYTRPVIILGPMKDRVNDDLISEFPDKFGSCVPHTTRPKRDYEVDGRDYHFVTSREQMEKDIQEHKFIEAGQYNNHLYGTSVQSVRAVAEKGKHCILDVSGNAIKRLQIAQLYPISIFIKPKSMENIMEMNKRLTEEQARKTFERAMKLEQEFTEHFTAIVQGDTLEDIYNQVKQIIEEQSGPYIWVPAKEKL

N=C(N)NCCC[C@H](NC(=O)CNC(=O)[C@@H](N)Cc1ccc(O)cc1)C(=O)N[C@@H](CCCCN)C(=O)N[C@@H](CCCCN)C(=O)N[C@@H](CCCNC(=N)N)C(=O)N[C@@H](CCCNC(=N)N)C(=O)N[C@@H](CCC(N)=O)C(=O)N[C@@H](CCCNC(=N)N)C(=O)N[C@@H](CCCNC(=N)N)C(=O)N[C@@H](CCCNC(=N)N)C(=O)NCC(=O)NCC(=O)N[C@@H](CO)C(=O)NCC(=O)N[C@@H](CCC(N)=O)C(=O)N1CCC[C@H]1C(=O)N1CCC[C@H]1C(=O)N[C@@H](CCCNC(=N)N)C(=O)N[C@@H](CCC(N)=O)C(=O)N[C@@H](CCCNC(=N)N)C(=O)N1CCC[C@H]1C(=O)N[C@@H](CCCNC(=N)N)C(=O)NCC(=O)O [PEP3] (H-YGRKKRRQRRRGGSGQPPRQRPRG-OH)
synaptic levels of ADAM10 (TIF) ([1]; APP/PS1 (Tg) mice of 6 months): 125.00 ± 18.53%
synaptic levels of ADAM10 (TIF) ([1]; APP/PS1 (Tg) mice of 9 months): 99.13 ± 13.64%
total levels of ADAM10 (total homogenate) ([1]; APP/PS1 (Tg) mice of 9 months): 99.96 ± 13.05%
interaction between ADAM10 and SAP97 [2]: +3.30 ± 6.40%
intracellular pool of ADAM10 [3]: 37.52 ± 3.38%
N-CAD CTF / N-CAD FL ratio [4]: 124.00 ± 5.42%
ratio of the new-arm/familiar-arm exploration time (Y-maze) [5]: 1.46 ± 0.09
% exploration time, familiar object [6]: 40.46±3.11%
% exploration time, new object [6]: 59.54±3.11%
synaptic localization of BACE-1 [7]: 108.90 ± 7.24%
interaction between BACE-1 and α-adaptin [8]: +2.90 ± 11.16%
ADAM10/β2 adaptin immunoprecipitation (ADAM10/AP2 interaction) [9]: 57.59 ± 7.83%
density of dendritic spines [10]: 9.95±0.41 no. spines/10µm
length of spines [10]: 1.10±0.03 µm
width of the spines [10]: 0.67±0.01 µm
glutamatergic synapse composition (GluN1, GluN2B, GluN2A, GluA1) [11]: does not alter the glutamatergic synapse composition
synaptic localization of ADAM10 (TIF) with respect to the controls [12]: +114.90 ± 17.89%
internalization index [13]: -12.85 ± 1.61%
synaptic levels of GLUN2A (TIF) ([14]; APP/PS1 (Tg) mice of 9 months, percentage of WT mice treated with inPEP3): 102.00 ± 5.10%
other synaptic proteins (GluN2B, GLUA1, pS845GluA1) ([14]; APP/PS1 mice of 9 months): No significant changes emerged
OD ratio between soluble alpha fragment APP (sAPPα) and total soluble APP ([15]; C57BL/6 mice, intraperitoneal 3 nmol/g, 24 hours (Figure 9)): 155.50 ± 15.05%
levels of sAPPα ([15]; intraperitoneal 3 nmol/g, 12 hours): 112.70 ± 5.62%
OD ratio between sAPPα and sAPP-total [15, 24]: 151.60 ± 12.22%
ratio of the OD between sAPPα and sAPP-total [15, 25]: 126.30 ± 6.23%
increase of the levels of sAPPα [15, 26]: about 30%
levels of sAPPα ([15]; intraperitoneal 3 nmol/g, 36 hours): 120.00 ± 5.70%
release of sAPPα ([15]; intraperitoneal, dose of 1 nmol/g or time of 48 hours): Neither the dose of 1 nmol/g, nor the time of 48 hours determine significant alterations
release of sAPPα [15, 27]: no significant changes in the release of sAPPα; also recorded: does not interfere with the release of sAPPα
release of sAPPα (ELISA) [16]: 121.50 ±5.99%
ADAM10/tubulin ratio, synaptic levels of ADAM10 (TIF) [17, 28]: 125.60 ± 14.10%
ADAM10/Tubulin OD ratio, total brain lysate ([17]; C57BL/6 mice, intraperitoneal 3 nmol/g, 24 hours (Figure 8C)): 100.00 ±11.62%
ADAM10/Tubulin OD ratio, synaptic fraction (TIF) ([17]; C57BL/6 mice, intraperitoneal 3 nmol/g, 24 hours (Figure 8D)): 147.50 ± 7.09% and 147.50 ± 7.10%
synaptic levels of ADAM10 ([17]; intraperitoneal 3 nmol/g, 12 and 36 hours after injection): slight, but not statistically significant, increase in the synaptic levels of ADAM10
ADAM10/tubulin OD ratio, synaptic levels of ADAM10 [17, 25]: 137.40 ± 6.32%
synaptic levels of ADAM10 (TIF) ([17]; intraperitoneal, lower dose 1 nmol/g (Figure 10)): not shown to be effective
synaptic availability of ADAM10, TIF [17, 27]: does not alter the synaptic availability of ADAM10; also recorded: does not modify the synaptic availability of ADAM10
interaction between AP2 complex (α-adaptin) and APP, GluA1, GABA-A β3 [18]: neither PEP2 nor PEP3 interfere with the bond; also recorded: do not display any changes in the interaction levels
interaction between ADAM10 and µ2 (co-IP OD) [19, 28]: -23.26 ± 6.99% and -23.60 ± 6.99%
interaction between ADAM10 and β2-adaptin (co-IP OD) [19, 28]: -30.77 ± 7.34%
co-precipitation of µ2 with ADAM10 [19, 29]: -61.06 ± 11.63%
co-precipitation of α-adaptin with ADAM10 [19, 29]: -64.96 ± 9.81%
co-precipitation of β2-adaptin with ADAM10 [19, 29]: -92.45 ± 4.02%
PEP3/inPEP3 OD, ADAM10/AP2 (α-adaptin) co-precipitation [19, 24]: -35.74 ± 7.80%
PEP3/inPEP3 OD, ADAM10/α-adaptin co-precipitation [19, 25]: -31.00 ± 6.12% and -31.00 ± 6.13%
reduction of the interaction between ADAM10 and α-adaptin [19, 26]: 31%
PEP3/inPEP3 OD, ADAM10/α-adaptin co-precipitation ([19]; intraperitoneal 3 nmol/g, 36 hours (Figure 12), not statistically significant): -19.69 ± 16.86%
reduction of the interaction between ADAM10 and α-adaptin ([19]; intraperitoneal 3 nmol/g, 36 hours after injection, not statistically significant): 20%
levels of the complex ADAM10/AP2 ([19]; intraperitoneal injection, 48 hours (Figure 10)): no modifications of the levels of the complex ADAM10/AP2 were observed
ADAM10/AP2 interaction (α-adaptin co-precipitation) [19, 27]: is not able to interfere with the ADAM10/AP2 interaction in any of the experimental groups; also recorded: does not modify the interaction between ADAM10 and the AP2 complex
production of the fragment of NOTCH-1 [20]: 207.60 ± 23.58%
levels of Aβ (ELISA) [21]: 4.47 ± 0.45 pg/mL
formation of the complex AP2/GABA-A β3 [22]: +6.00 ± 5.36%
interaction between APP and the complex AP2 [23]: does not interfere; also recorded: does not alter the interaction between APP and the complex AP2
